Measurements as given in publication PMC5407853.
No constants are given. Whether binding was seen depends on the method and setting. Binding seen in cells or lysates may run through a third protein. Some entries that bind do so weakly or less than the wild type. For part of these data: Tags and fused reporters may be left off the sequences shown.

Protein sequences, listed by entry. Tags and fused reporters are not part of them.
UniProt Q7Z434: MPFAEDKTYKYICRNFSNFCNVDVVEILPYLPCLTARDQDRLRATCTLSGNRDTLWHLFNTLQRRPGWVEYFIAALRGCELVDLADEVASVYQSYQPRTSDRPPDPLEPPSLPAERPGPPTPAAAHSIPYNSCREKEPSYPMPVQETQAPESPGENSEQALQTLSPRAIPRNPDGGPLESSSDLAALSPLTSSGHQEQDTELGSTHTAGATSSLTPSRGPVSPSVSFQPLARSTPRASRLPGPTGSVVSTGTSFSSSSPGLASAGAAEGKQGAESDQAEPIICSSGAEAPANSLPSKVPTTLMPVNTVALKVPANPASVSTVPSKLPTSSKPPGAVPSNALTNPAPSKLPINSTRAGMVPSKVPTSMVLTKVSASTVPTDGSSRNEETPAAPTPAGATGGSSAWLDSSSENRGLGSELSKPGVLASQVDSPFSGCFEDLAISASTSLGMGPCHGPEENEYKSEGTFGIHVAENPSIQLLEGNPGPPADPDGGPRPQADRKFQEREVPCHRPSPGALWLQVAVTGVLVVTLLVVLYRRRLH

T1: HA-tagged MDA5 (UniProt Q9BYX4)
T1 sequence: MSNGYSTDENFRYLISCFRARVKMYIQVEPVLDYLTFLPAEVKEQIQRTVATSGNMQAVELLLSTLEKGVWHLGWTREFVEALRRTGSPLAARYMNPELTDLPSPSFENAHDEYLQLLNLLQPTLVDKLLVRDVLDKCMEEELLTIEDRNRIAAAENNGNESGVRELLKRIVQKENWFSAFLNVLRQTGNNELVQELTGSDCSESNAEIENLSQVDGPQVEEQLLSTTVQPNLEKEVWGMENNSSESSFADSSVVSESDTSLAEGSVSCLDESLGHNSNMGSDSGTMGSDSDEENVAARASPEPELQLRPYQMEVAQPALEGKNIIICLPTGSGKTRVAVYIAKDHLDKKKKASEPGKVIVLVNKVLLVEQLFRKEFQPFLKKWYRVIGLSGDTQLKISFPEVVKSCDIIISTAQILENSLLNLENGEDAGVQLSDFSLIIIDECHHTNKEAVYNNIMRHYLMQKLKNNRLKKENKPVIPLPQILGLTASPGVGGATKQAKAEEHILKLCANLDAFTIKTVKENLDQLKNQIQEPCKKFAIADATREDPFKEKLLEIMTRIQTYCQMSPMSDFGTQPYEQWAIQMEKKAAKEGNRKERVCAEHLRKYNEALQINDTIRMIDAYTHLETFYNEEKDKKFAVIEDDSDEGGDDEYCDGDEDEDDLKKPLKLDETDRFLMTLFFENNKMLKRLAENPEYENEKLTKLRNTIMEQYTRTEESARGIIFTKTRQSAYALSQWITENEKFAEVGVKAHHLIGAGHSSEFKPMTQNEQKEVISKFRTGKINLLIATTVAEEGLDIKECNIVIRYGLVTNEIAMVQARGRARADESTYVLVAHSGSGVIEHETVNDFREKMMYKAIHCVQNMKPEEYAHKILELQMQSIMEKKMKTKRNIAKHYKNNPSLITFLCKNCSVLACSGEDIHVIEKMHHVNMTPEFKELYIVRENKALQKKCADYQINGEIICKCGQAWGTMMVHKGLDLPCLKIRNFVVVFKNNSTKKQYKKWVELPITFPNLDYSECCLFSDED

T2: HA-tagged RIG-I (UniProt O95786)
T2 sequence: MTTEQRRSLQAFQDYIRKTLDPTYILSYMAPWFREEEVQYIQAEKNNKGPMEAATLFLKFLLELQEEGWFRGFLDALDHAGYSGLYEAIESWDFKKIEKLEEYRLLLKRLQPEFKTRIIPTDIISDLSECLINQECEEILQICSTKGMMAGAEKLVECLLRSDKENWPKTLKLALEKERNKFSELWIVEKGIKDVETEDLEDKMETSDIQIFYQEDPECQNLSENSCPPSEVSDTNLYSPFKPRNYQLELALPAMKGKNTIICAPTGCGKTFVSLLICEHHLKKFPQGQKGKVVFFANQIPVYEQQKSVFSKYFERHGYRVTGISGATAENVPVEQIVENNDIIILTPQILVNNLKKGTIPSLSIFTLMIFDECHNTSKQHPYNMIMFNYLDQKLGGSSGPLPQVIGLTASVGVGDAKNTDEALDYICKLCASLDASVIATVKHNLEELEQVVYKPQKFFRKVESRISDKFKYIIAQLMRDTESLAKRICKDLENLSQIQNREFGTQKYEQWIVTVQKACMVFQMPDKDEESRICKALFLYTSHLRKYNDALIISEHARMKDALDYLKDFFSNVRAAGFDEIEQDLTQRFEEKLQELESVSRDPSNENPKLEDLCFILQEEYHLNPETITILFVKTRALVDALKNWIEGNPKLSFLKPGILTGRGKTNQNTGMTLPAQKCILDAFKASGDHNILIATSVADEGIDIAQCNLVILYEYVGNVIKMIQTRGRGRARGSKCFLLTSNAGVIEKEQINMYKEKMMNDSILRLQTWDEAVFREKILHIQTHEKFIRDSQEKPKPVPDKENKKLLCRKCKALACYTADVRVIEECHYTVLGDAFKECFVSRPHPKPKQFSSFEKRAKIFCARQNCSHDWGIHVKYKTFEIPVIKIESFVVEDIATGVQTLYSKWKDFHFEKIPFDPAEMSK

T3: HA-tagged IRF3 (UniProt Q14653)
T3 sequence: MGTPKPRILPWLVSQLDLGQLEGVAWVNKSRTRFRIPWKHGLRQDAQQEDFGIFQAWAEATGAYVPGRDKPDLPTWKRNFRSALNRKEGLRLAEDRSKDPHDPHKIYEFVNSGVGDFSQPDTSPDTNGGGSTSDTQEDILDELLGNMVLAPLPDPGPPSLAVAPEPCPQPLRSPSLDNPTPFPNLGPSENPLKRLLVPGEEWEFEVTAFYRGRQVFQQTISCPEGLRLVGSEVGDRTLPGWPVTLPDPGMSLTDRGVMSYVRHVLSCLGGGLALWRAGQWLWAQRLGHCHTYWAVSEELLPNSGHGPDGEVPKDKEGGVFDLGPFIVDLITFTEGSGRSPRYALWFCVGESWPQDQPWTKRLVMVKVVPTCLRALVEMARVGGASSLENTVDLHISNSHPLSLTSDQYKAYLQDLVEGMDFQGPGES


Columns and labels:
[1] = target: T1, HA-tagged MDA5; experiment: co-IP; 293T cells cotransfected with Flag- and HA-tagged expression plasmids; NP-40 lysis buffer (20 mM Tris-HCl pH 7.4, 150 mM NaCl, 1 mM EDTA, 1% Nonidet P-40); immunoblotting
[2] = target: T2, HA-tagged RIG-I; experiment: as above
[3] = target: HA-VISA (UniProt Q7Z434); experiment: as above
[4] = target: T3, HA-tagged IRF3; experiment: as above
[5] = target: VISA (endogenous) (human (endogenous in 293T)) (UniProt Q7Z434); experiment: co-IP
[6] = target: VISA (endogenous) (human (endogenous in 293T)) (UniProt Q7Z434); experiment: co-IP; endogenous proteins; 293T cells (wild-type or GPATCH3-deficient) left uninfected or infected with SeV for the indicated times; NP-40 lysis buffer (20 mM Tris-HCl pH 7.4, 150 mM NaCl, 1 mM EDTA, 1% Nonidet P-40)

binding [1] | binding [2] | binding [3] | binding [4] | binding [5] | binding [6] | Binder
no binding | no binding | binds | no binding | – | – | Flag-GPATCH3 (G patch domain-containing protein 3) (protein, UniProt Q96I76 1-525) MAVPGEAEEEATVYLVVSGIPSVLRSAHLRSYFSQFREERGGGFLCFHYRHRPERAPPQAAPNSALIPTDPAAEGQLLSQTSATDVRPLSTRDSTPIQTRTCCCVISVRGLAQAQRLIRMYSGRRWLDSHGTWLPGRCLIRRLRLPTEASGLGSFPFKTRKELQSWKAENEAFTLADLKQLPELNPPVLMPRGNVGTPLRVFLELIRACRLPPRIITQLQLQFPKTGSSRRYGNVPFEYEDSETVEQEELVYTAEGEEIPQGTYLADIPASPCGEPEEEVGKEEEEESHSDEDDDRGEEWERHEALHEDVTGQERTTEQLFEEEIELKWEKGGSGLVFYTDAQFWQEEEGDFDEQTADDWDVDMSVYYDRDGGDKDARDSVQMRLEQRLRDGQEDGSVIERQVGTFERHTKGIGRKVMERQGWAEGQGLGCRCSGVPEALDSDGQHPRCKRGLGYHGEKLQPFGQLKRPRRNGLGLISTIYDEPLPQDQTESLLRRQPPTSMKFRTDMAFVRGSSCASDSPSLPD
– | – | – | – | binds | binds | GPATCH3 (endogenous) (protein, UniProt Q96I76 1-525) MAVPGEAEEEATVYLVVSGIPSVLRSAHLRSYFSQFREERGGGFLCFHYRHRPERAPPQAAPNSALIPTDPAAEGQLLSQTSATDVRPLSTRDSTPIQTRTCCCVISVRGLAQAQRLIRMYSGRRWLDSHGTWLPGRCLIRRLRLPTEASGLGSFPFKTRKELQSWKAENEAFTLADLKQLPELNPPVLMPRGNVGTPLRVFLELIRACRLPPRIITQLQLQFPKTGSSRRYGNVPFEYEDSETVEQEELVYTAEGEEIPQGTYLADIPASPCGEPEEEVGKEEEEESHSDEDDDRGEEWERHEALHEDVTGQERTTEQLFEEEIELKWEKGGSGLVFYTDAQFWQEEEGDFDEQTADDWDVDMSVYYDRDGGDKDARDSVQMRLEQRLRDGQEDGSVIERQVGTFERHTKGIGRKVMERQGWAEGQGLGCRCSGVPEALDSDGQHPRCKRGLGYHGEKLQPFGQLKRPRRNGLGLISTIYDEPLPQDQTESLLRRQPPTSMKFRTDMAFVRGSSCASDSPSLPD
